In PubChem BioAssay AID485344 (National Center for Advancing Translational Sciences (NCATS), 2010) one finds inhibition data, which are given here for 97 compounds.

The inhibition is the change of the read-out against control, counted positive when it falls.

Screen size: about 340,000 compounds; about 6,900 (2%) were called active. Cut-off read from the data, not from the text of the source: active = inhibition above about 30%; inactive = below that, where a call was filed. The entries are a selection whose mix differs from that of the whole data set. Where no call is shown, the source filed none.

The test addresses D(2) dopamine receptor (Homo sapiens) (UniProt P14416). Kind of test: HTS Assay for Allosteric Antagonists of the Human D2 Dopamine Receptor: Primary Screen for Antagonists. Note: 0% is about no effect. The conditions noted are these: HEK293 TREx D2 cells, calcium flux, dopamine EC80; at 10 µM; stronger effect = higher value. An outline of the steps: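 Inhibition of EC80 dopamine-driven calcium flux, recorded kinetically, defines activity here; cells are a tetracycline-induced HEK293 T-REx line expressing force-coupled D2.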
UniProt P14416, sequence (P14416 whole entry, looked up): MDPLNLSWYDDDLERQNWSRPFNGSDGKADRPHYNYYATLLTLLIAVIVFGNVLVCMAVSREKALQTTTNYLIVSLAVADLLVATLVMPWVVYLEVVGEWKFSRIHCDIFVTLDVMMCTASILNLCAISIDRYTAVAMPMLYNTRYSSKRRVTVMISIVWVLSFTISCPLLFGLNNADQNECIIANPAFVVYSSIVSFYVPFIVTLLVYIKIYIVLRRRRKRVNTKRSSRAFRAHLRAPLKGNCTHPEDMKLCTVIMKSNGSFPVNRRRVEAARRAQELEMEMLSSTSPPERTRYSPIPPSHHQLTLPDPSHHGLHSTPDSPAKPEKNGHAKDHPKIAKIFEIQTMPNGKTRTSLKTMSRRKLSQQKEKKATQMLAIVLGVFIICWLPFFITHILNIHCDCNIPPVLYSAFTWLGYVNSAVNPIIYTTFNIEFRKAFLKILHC
On the technique in general: Calcium flux is commonly read through the fluorescence of an indicator in the cells.
As for `O=C(Nc1ccc2c(c1)OCO2)NC1CCN(Cc2ccccc2)CC1`, the inhibition was active: 46.4%.

Take `COc1ccccc1Cc1nc2ccccc2nc1SCC(=O)NCc1ccccc1Cl`: the inhibition turned out to be 13.8%.

`CN1CCc2nc3sc(C(=O)Nc4ccccc4C(F)(F)F)c(N)c3cc2C1`: the inhibition was -1.27%.

In the case of `COc1cccc(C(=O)Nc2cccc(C(=O)OCc3cc(=O)n4c(C)csc4n3)c2)c1`, the inhibition worked out at 7.9%.

In the case of `Cn1c(SCC(=O)Nc2nc3ccccc3s2)ncc(C(=O)Nc2ccc(F)cc2)c1=O`, the inhibition is 5.45%.

Take `Cc1c(C(=O)NC(C)c2ccccc2)sc2nc3n(c(=O)c12)CCCC3` (configuration not stated): the inhibition was found to be 7.41%.

On to `COCCNC(=O)c1ccc2c(c1)N=C(C)c1cc(C)ccc1S2`, for which the inhibition is -10.2%.

`NS(=O)(=O)c1ccc2nc(NC(=O)COc3ccc(Cl)cc3Cl)sc2c1`: the inhibition is -10.5%.

Regarding `CCOC(=O)COc1ccc(C)cc1C(=O)c1ccn2nc(-c3ccc(F)cc3)cc2n1`, the inhibition is -22%.

With `CC1CCN(C(=O)c2cccc(NC(=O)c3nsc4ccccc34)c2)CC1`, the inhibition is 13%.

Regarding `COc1ccc(CC(=O)N2CCc3cc(OC)c(OC)cc3C2COc2ccc(F)cc2)cc1OC` (configuration not stated), the inhibition was 25.4%.

Regarding `O=C(NCc1ccccc1)c1ccc2oc(=O)n(Cc3ccccc3)c2c1`, the inhibition was 4.79%.

On to `CCCNC(=O)CSc1nc(-c2ccc(OC)cc2)cc(C(F)(F)F)n1`, for which the inhibition is -2.42%.

As to `O=C(CC1N=C2c3ccccc3N=C(SCC(=O)Nc3ccc(F)cc3)N2C1=O)NCc1cccs1` (configuration not stated), the inhibition is -0.582%.

For the compound `c1ccc(CN2CCC3(CCCc4ccccc43)CC2)cc1`, the inhibition was active: 42.7%.

As to `CCN(CC)CCCNC(=O)c1ccc2c(Cl)c3c(nc2c1)CCCC3`, the inhibition is -4.7%.

In the case of `COCCCNC(=O)C1CCN(c2cc(C)nc3c(-c4ccc(Cl)cc4)c(C)nn23)CC1`, the inhibition was -1.5%.

For the compound `COc1ccc(C(=O)NCCn2cc(SCC(=O)Nc3ccc4c(c3)OCCO4)c3ccccc32)cc1OC`, the inhibition was 10.1%.

As for `CC(C)CC1Nc2ccc(C(=O)NCCCOC(C)C)cc2NC1=O` (configuration not stated), the inhibition is -2.84%.

`CCOC(=O)Cn1c(=O)n(-c2ccccc2OC)c2nc(-c3ccc(C(C)C)cc3)nc(C(N)=O)c21`: the inhibition is -1.48%.

Turning to `CCOC(=O)c1c(Oc2ccc(C(C)=O)cc2)nnc(-c2ccccc2)c1-c1ccccc1`, the inhibition is -21.3%.

For `CCc1nn2c(=O)cc(COC(=O)C(CC)c3ccccc3)nc2s1` (configuration not stated), the inhibition is -7.84%.

On to `CCNC(=O)Cn1nc(C)n2c(cc3c(OC)cccc32)c1=O`, for which the inhibition came to 16.5%.

Turning to `Cc1ccc(NC(=O)C2CCN(c3nnc(C)c4c(C)n(-c5ccccc5)nc34)CC2)cc1Cl`, the inhibition stood at 5.02%.

In the case of `Cc1oc2ccc(O)c(CN3CCOCC3)c2c1C(=O)Nc1cccc(Cl)c1C`, the inhibition came to 6.91%.

For the compound `Cc1c(Cl)cccc1-n1ncc(C(=O)N2CCOCC2)c1C1CCN(C(=O)OC(C)(C)C)CC1`, the inhibition was determined as 0.647%.

Take `Cc1ccc(OCCCSc2nc(-c3ccc(C(C)(C)C)cc3)nc3cc(=O)[nH]n23)cc1C`: the inhibition stood at 6.6%.

Regarding `Cc1cc(C)n(C(C)CC(=O)NCc2ccc(Cl)cc2)n1` (configuration not stated), the inhibition amounted to 7.1%.

As to `Cc1ccc(OCC(=O)OCc2cc(=O)n3nc(C4CC4)sc3n2)cc1`, the inhibition came to 6.73%.

In the case of `Cc1cccn2c(=O)c3cc(C(=O)Nc4ccc(Cl)c(Cl)c4)sc3nc12`, the inhibition was 3.24%.

Consider `Cc1ccc(Nc2ccc(N3CCN(C(=O)c4ccc([N+](=O)[O-])cc4)CC3)nn2)cc1`, for which the inhibition is -20.9%.

Turning to `Cc1ccc(S(=O)(=O)NCCc2csc(-c3cccc(F)c3)n2)cc1`, the inhibition amounted to 0.773%.

Regarding `Cn1c(SCc2ccc(Br)cc2)nc2c([nH]c3ccccc32)c1=O`, the inhibition was -12.7%.

As for `Cc1nc2ccn(Cc3ccco3)c(=O)c2cc1C(=O)NCc1ccc(F)cc1`, the inhibition was found to be 15.7%.

Consider `Cc1ccc(NC(=O)CN2C(=O)CC(C)Sc3ccccc32)c(C)c1` (configuration not stated), for which the inhibition was 6.8%.

In the case of `CCOC(=O)c1cccc(NS(=O)(=O)c2cc3c(cc2C)NC(=O)CO3)c1`, the inhibition was 11.3%.

`O=C(c1ccc(Nc2nc3ccccc3n3nnnc23)cc1)N1CCN(c2cccc(C(F)(F)F)c2)CC1`: the inhibition amounted to 9.47%.

Consider `Cc1ccc(C)c(NS(=O)(=O)c2cc3c4c(c2)C(C)C(=O)N4CCC3)c1` (configuration not stated), for which the inhibition came out at 19.3%.

For the compound `C(=N\N1CCOCC1)/c1nc(-c2ccccc2)n2ccccc12`, the inhibition was active: 43.4%.

`CCCCN(CC)C(=O)c1cc2c(=O)n3cccc(C)c3nc2s1`: the inhibition was 24.5%.

On to `COc1cc(Cl)c(C)cc1NC(=O)c1cnc(N2CCOCC2)c2ccccc12`, for which the inhibition turned out to be 19.3%.

Consider `CCOC(=O)c1ccc(NC(=O)CSC2=NC(=O)C(CC)C(=O)N2)cc1` (configuration not stated), for which the inhibition was active: 47%.

On to `CCc1ccccc1NC(=O)CC1Sc2ccc(C(F)(F)F)cc2NC1=O` (configuration not stated), for which the inhibition is 11.4%.

In the case of `CCCCSc1nnc2c(n1)OC(C)N(C(C)=O)c1ccccc1-2` (configuration not stated), the inhibition amounted to 9.96%.

For `COc1ccc(CCNC(=O)Cc2c(C)c3cc4c(C)coc4c(C)c3oc2=O)cc1`, the inhibition worked out at 22.3%.

Regarding `COc1ccc(CCNC(=O)C2COc3ccccc3C2)cc1OC` (configuration not stated), the inhibition is -8.46%.

As for `Cn1c(Oc2ccc(Cl)cc2)nc2c1c(=O)n(Cc1ccc(F)cc1)c(=O)n2C`, the inhibition was determined as 5.83%.

As for `COc1cc(C)c(S(=O)(=O)NCc2ccc3c(c2)OCO3)cc1C`, the inhibition was active: 31.7%.

For the compound `COc1ccc(C(=O)NC(c2ccc(Cl)cc2)c2cc(Cl)c3cccnc3c2O)cc1` (configuration not stated), the inhibition is 0.86%.

For the compound `O=C(NCCc1ccccc1)c1ccc2c(c1)N(Cc1ccc(F)cc1)C(=O)c1ccccc1S2`, the inhibition amounted to 8.47%.

On to `CCc1ccc(-c2cc(C)no2)cc1S(=O)(=O)Nc1ccc(C)cn1`, for which the inhibition was determined as 0.153%.

For the compound `Cc1cccc(-c2nnn3c2nc(NCc2ccccc2)c2ccccc23)c1`, the inhibition is -13.4%.

On to `CC(C)CCNC(=O)C1CCN(S(=O)(=O)c2cccc3nsnc23)CC1`, for which the inhibition is -5.34%.

For the compound `N#Cc1cccc(NC(=O)COC(=O)CCc2ccc(S(=O)(=O)N3CCOCC3)cc2)c1`, the inhibition was active: 34.4%.

As for `O=C(NCCCc1nc2ccccc2n1Cc1ccccc1)C1CCCCC1`, the inhibition came to 8.59%.

For `Cc1ccccc1OCc1ccc(-c2nc(C#N)c(N3CCN(c4ccccc4)CC3)o2)o1`, the inhibition was -5.85%.

For `CN(C)c1cc2c(cc1NC(=O)c1ccc(F)cc1)n(C)c(=O)n2C`, the inhibition is -7.3%.

For the compound `COc1cccc(Cn2c(C)c(CNCc3ccccc3Cl)c(C(=O)O)c2C)c1`, the inhibition amounted to 0.935%.

With `CCOc1ccc(CNC(=O)c2ccc(NC(=O)N3CCSc4ncccc43)cc2)cc1OC`, the inhibition worked out at 2.69%.

Regarding `CC(=O)c1cccc(NC(=O)CN2C(=O)c3cccnc3Sc3ccccc32)c1`, the inhibition turned out to be 3.57%.

For `CCc1ccc(NC(=O)Cn2c(=O)n(-c3ccccc3)c(=O)c3ccc(C(=O)NCc4ccc5c(c4)OCO5)cc32)cc1`, the inhibition was -8.06%.

For `Cc1ccc(C)c(Cn2c(=O)n(Cc3ccco3)c(=O)c3oc4ccccc4c32)c1`, the inhibition is -3.81%.

Turning to `CCc1ccccc1NC(=O)c1sc2nc3n(c(=O)c2c1C)CCC3`, the inhibition was found to be 18.5%.

With `COc1cc(CN(C(=O)c2ccc(OC(C)C)cc2)C2CCS(=O)(=O)C2)cc(OC)c1OC` (configuration not stated), the inhibition was -3.67%.

Regarding `CCN1CCOC(=O)C1CC(=O)Nc1ccc(C(C)=O)cc1` (configuration not stated), the inhibition is 3.27%.

Take `CCOC(=O)c1cnc2ccc(C(=O)OC)cc2c1Nc1ccc(N2CCOCC2)cc1`: the inhibition worked out at 1.21%.

Consider `CCOc1ccc(CCNC(=O)c2ccc(CS(=O)(=O)c3ccccc3C)o2)cc1OCC`, for which the inhibition worked out at 20.5%.

As to `COC(=O)c1ccc(Cn2c(SCC(=O)NCc3ccccc3)nc3ccccc32)cc1`, the inhibition is -11.6%.

On to `CSCCC(NS(=O)(=O)c1cccs1)C(=O)Nc1ccc(C)c(Cl)c1` (configuration not stated), for which the inhibition was 1.16%.

Turning to `CCc1ccccc1Nc1ncnc2c1cnn2-c1ccc(Cl)cc1`, the inhibition worked out at 0.0401%.

For `CC(C)c1ccc(OCC(O)CN2CCN(c3ccccn3)CC2)cc1` (configuration not stated), the inhibition is active: 74.5%.

As for `CC(=O)c1ccc(NC(=O)CSc2nnc(NC(=O)Nc3ccccc3)s2)cc1`, the inhibition came out at 13.9%.

With `COc1ccc(OC)c(NC(=O)Cc2c(C)n(C(=O)c3ccc(Cl)cc3)c3ccc(OC)cc23)c1`, the inhibition was found to be 13.8%.

Consider `COc1ccc(Cl)cc1NC(=O)c1ncn(-c2ccccc2)n1`, for which the inhibition was -3.81%.

Take `CC(C)C(=O)N1c2nc(C(C)C)nn2C2(CCCCC2)[C@@H]2CCCC[C@@H]21`: the inhibition came to 15.5%.

As to `Cc1cc(C)c2c(=O)cc(CSc3nnc(-c4ccccc4)n3C)[nH]c2c1`, the inhibition is -3.34%.

Turning to `Cc1ccc(Nc2nc3ccccc3c3nnc(C)n23)cc1Cl`, the inhibition came to 3.39%.

As to `COc1cc(-c2nnc(SCC(=O)Oc3ccccc3)o2)cc(OC)c1OC`, the inhibition was determined as 6.05%.

Consider `COc1ccc(OC)c(Nc2ncc3c(n2)CCN(Cc2cc(OC)c(OC)c(OC)c2)C3)c1`, for which the inhibition was found to be 4.55%.

For `Cc1cnc(C(=O)Nc2ccccc2-c2nnn(CC(=O)NC3CCCC3)n2)cn1`, the inhibition is active: 30.4%.

Consider `COc1cc(OC)c(NC(=O)N2CCN3CCCCC3C2)cc1Cl` (configuration not stated), for which the inhibition is 7.47%.

`CC(C)(C)c1cc(C(C)(C)C)c2oc(=O)c(-c3nc4ccc(C(=O)O)cc4[nH]3)cc2c1`: the inhibition was 22.6%.

With `CC1CCN(Cc2c(O)ccc3c(=O)c(-c4ccc(Cl)cc4)c(C(F)(F)F)oc23)CC1`, the inhibition is -4.24%.

For `Cc1ccc(CN2CCN(C3CCN(C(=O)c4ccc(C)cc4)CC3)C(=O)C2=O)cc1`, the inhibition worked out at 3.98%.

With `COc1ccc(Cl)cc1NC(=O)CCN1C(=O)c2ccccc2Sc2ncccc21`, the inhibition is -7.51%.

With `CCOC(=O)c1ccccc1NC(=O)CSc1cc(C)[nH]c(=O)n1`, the inhibition was -0.523%.

Take `CC(Oc1ccc(Br)cc1)C(=O)NNC(=O)CCN1CCN(c2ccccc2)CC1` (configuration not stated): the inhibition was active: 61.5%.

Consider `CC(=O)N1CCc2cc(S(=O)(=O)NC(CC(C)C)C(=O)NCCc3ccccc3)ccc21` (configuration not stated), for which the inhibition was -8.9%.

Take `Cc1ccc(-n2nc3c(N4CCC(C(=O)NCCc5ccccc5C)CC4)nnc(C)c3c2C)cc1`: the inhibition is -2.56%.

`CCc1ccccc1NC(=O)N1CCC2(CC1)Oc1ccccc1C(=O)N2Cc1ccccc1F`: the inhibition was found to be 15.1%.

For `COC(=O)c1ccccc1NC(=O)Nc1cccs1`, the inhibition is active: 37.9%.

`CCCC(CCC)C(=O)Nc1cccc(-c2nc3cccnc3s2)c1`: the inhibition turned out to be 12.8%.

`CC(=O)Nc1ccc(NS(=O)(=O)c2ccc3[nH]c4c(c3c2)CCCCC4)cc1`: the inhibition was -1.2%.

Take `CCOc1ccc(C(=O)NCC(c2ccc3c(c2)OCO3)N2CCN(c3ccc(F)cc3)CC2)cc1` (configuration not stated): the inhibition is 16.3%.

`COc1ccc(CCN2C(=O)N(c3ccc(F)cc3)C(=O)C2CC(=O)Nc2ccc(OC)cc2)cc1` (configuration not stated): the inhibition was 13.4%.

`Cc1ccc(Nc2ncnc3c2nc2n3CCCC2)c(Br)c1`: the inhibition is -11.7%.

Consider `COc1ccccc1CNC(=O)c1cnc2sc(N3CCOCC3)nn2c1=O`, for which the inhibition was -0.723%.
